Measured values reported in patent US20190352358A1, “COMPOUNDS, COMPOSITIONS AND USES THEREOF FOR IMPROVEMENT OF BONE DISORDERS” (ALIZE PHARMA III SAS, priority 2017, published 2019).
For some assays here: At least one peptide structure holds a part that was inferred or is arguable (an end, a ring closure or a residue). Some entries share one result that the patent states for a list of compounds. Residues, ends and D or L forms follow the SMILES beside them. No end group written: not given here. *: point of attachment. Stearoyl = CCCCCCCCCCCCCCCCCC(=O)*; Palmitoyl = CCCCCCCCCCCCCCCC(=O)*

Experiments:
[1] = Pharmacokinetics in male Sprague Dawley rats after intravenous and subcutaneous injection (Example 10); format: in vivo; settings: 1 μmol net peptide/kg, rat
Protocol: The peptides were reconstituted in saline (0.9% NaCl). Three male Sprague Dawley rats were used per group. Intravenous doses were administered into a lateral tail vein at the dose of 1 μmol net peptide/kg. Subcutaneous doses were administered into the right flank of each animal, also at the dose of 1 μmol net peptide/kg. Following dosing, serial whole blood samples (ca. 0.25 mL) were collected from a lateral tail vein into K2EDTA treated containers. Following each blood sample collection, samples were placed into a cooling block at 4° C. Samples were collected prior to dosing then at 2, 5, 15 and 30 minutes then 1, 2, 4, 6 and 8 and 24 hours post dose for intravenous injection and at 15 and 30 minutes then 1, 2, 4, 6, 8 and 24 hours post dose for subcutaneous injection.
Blood samples were centrifuged at 10000×g for 2 minutes at 4° C. and resultant plasma aspirated off into clean fully, labelled tubes. Plasma samples were snap frozen following aspiration then stored at −80° C. Peptides were extracted and analyzed as described in Example 9. The limits of quantification of these methods were 0.001 nmol/mL for cyclic HBD1 (3-11) and HBD1 (3-11) and 0.003 nmol/mL for HBD1 (1-13). All values below these limits of quantification were considered as zero.

[2] = system: MC-3T3 E1 clone 4 (CL4) osteoblast cells; assay: Osteocalcin expression during in vitro osteoblast differentiation, acylated and cyclic analogs (Example 7); format: cell-based; settings: Table 18; test peptide 1 μg/L; 18-21 day interval
Protocol: (§1) Each acylated peptide was tested in a biologic assay measuring its ability to stimulate differentiation of osteoblast cells over a 18-21 day interval as assessed by the stimulation of osteocalcin protein synthesis. MC-3T3 E1 clone 4 (CL4) osteoblast cells were obtained from ATCC (Manassas, Va., USA). Cells were cultured in α-MEM containing 10% fetal bovine serum (FBS; Thermo Fisher Scientific, Pittsburgh, Pa., USA). After confluency, culture medium was changed to differentiation medium (DM), which contained 10% FBS plus 50 μg/mL ascorbic acid and 4 mM β-glycerol phosphate, with or without a test peptide (1 μg/L). Fresh DM, with or without test peptide, was applied every 72 hours. The cell monolayers were lysed in a modified radioimmunoprecipitation assay (RIPA) buffer. Total cellular protein in the lysates was determined using BCA (Thermo Fisher Scientific, Rockford, Ill., USA). Cell proteins are separated on SDS-PAGE gel and transferred on PVDF membrane for analysis. Osteocalcin detection was performed using anti-osteocalcin antibody at 1:200 dilution (Santa Cruz Biotechnology, Inc, Santa Cruz, Calif., USA) and visualized using enhanced chemiluminescence (Thermo Fisher Scientific, Rockford, Ill., USA).
In a separate experiment, the effect of cyclization was examined on of the HBD1 (3-11) peptide. The cyclic HBD1 (3-11) was synthetized and tested on the in vitro osteoblast differentiation assay.

[3] = system: MC-3T3 E1 clone 4 (CL4) osteoblast cells; assay: Osteocalcin expression during in vitro osteoblast differentiation, alanine-substituted analogs (Example 3); format: cell-based; settings: Table 11; test peptide 1 μg/mL; 15 day interval
[4] = system: MC-3T3 E1 clone 4 (CL4) osteoblast cells; assay: Osteocalcin expression during in vitro osteoblast differentiation, amino-acid substituted analogs (Example 5); format: cell-based; settings: test peptide 1 μmon
[5] = system: MC-3T3 E1 clone 4 (CL4) osteoblast cells; assay: Osteocalcin expression during in vitro osteoblast differentiation, various doses of analogs (Example 8); format: cell-based; settings: 18 day interval
Protocol: as §1, with “The peptides were” for “Each acylated peptide was”, “tested at different concentrations” for “tested”, “their” for “its”, “18” for “18-21”, “an ascending dose of the peptide.” for “a test peptide (1 μg/L).”, “the” for “test”

[6] = system: MC-3T3 E1 clone 4 (CL4) osteoblast cells; assay: Osteocalcin expression during in vitro osteoblast differentiation, PEGylated analogs (Example 6); format: cell-based; settings: Table 17; test peptide 2 μg/mL; 18-21 day interval
Protocol: as §1, with “Each” for “Each acylated”, “(2 μg/mL).” for “(1 μg/L).”, “SD S-PAGE” for “SDS-PAGE”

Compound: CCCCCCCCCCCCCCCCCC(=O)N[C@@H](Cc1c[nH]cn1)C(=O)N[C@@H](CC(C)C)C(=O)NCC(=O)N[C@@H](CC(C)C)C(=O)N[C@@H](CCC(=O)O)C(=O)N[C@@H](CCC(=O)O)C(=O)N1CCC[C@H]1C(=O)N[C@@H](CCCCN)C(=O)N[C@@H](CCCCN)C(=O)O [SEQ ID NO: 73, C18:0-HLGLEEPKK] (Stearoyl-HLGLEEPKK-OH; C-terminus assumed)
- Tlast (last time point with detectable peptide) ([1]; iv, listed as HBD1 (3-11) with stearic acid at the N-terminus (C18:0)): up to 8 h
- Tlast (last time point with detectable peptide) ([1]; sc, listed as HBD1 (3-11) with stearic acid at the N-terminus (C18:0)): up to 8 h

Compound: CC(C)C[C@@H]1NC(=O)CNC(=O)[C@H](CC(C)C)NC(=O)[C@H](Cc2c[nH]cn2)NC(=O)[C@H](CCCCN)NC(=O)[C@H](CCCCN)NC(=O)[C@@H]2CCCN2C(=O)[C@H](CCC(=O)O)NC(=O)[C@H](CCC(=O)O)NC1=O [SEQ ID NO: 77, Cyclic(HLGLEEPKK)] (cyclo(EEPKKHLGL))
- Tlast (last time point with detectable peptide) ([1]; iv, listed as cyclic HBD1 (3-11)): up to 8 h

Compound: CCCCCCCCCCCCCCCC(=O)N[C@@H](Cc1c[nH]cn1)C(=O)N[C@@H](CC(C)C)C(=O)NCC(=O)N[C@@H](CC(C)C)C(=O)N[C@@H](CCC(=O)O)C(=O)N[C@@H](CCC(=O)O)C(=O)N1CCC[C@H]1C(=O)N[C@@H](CCCCN)C(=O)N[C@@H](CCCCN)C(=O)O [compound 72] (Palmitoyl-HLGLEEPKK-OH)
- Fold increase vs DM ± SE [2]: 3.21 ± 0.49 fold

Compound: HHLGLEEPKK [compound 16]
- Fold increase vs DM ± SE [2]: 3.28 ± 0.36 fold

Compound: HLGLEEPKK [compound 10]
- Fold increase vs DM ± SE [2]: 2.51 ± 0.42 fold
- Fold increase vs SEQ ID NO: 10 ± SE [3]: 1 fold
- Fold increase SEQ ID NO: 10 ± SE ([4]; Table 12, 12 day interval): 1 fold
- Fold increase vs DM ± SE ([4]; Table 13, 15 day interval): 2.80 ± 0.13 fold
- Fold increase vs DM ± SD ([4]; Table 14, 15 day interval): 2.90 ± 0.86 fold
- Fold increase vs DM ± SD ([4]; Table 15, 12 day interval): 3.19 ± 1.00 fold
- Fold increase vs DM ± SD ([4]; Table 16, 12 day interval): 2.90 ± 0.86 fold
- Fold increase vs DM ± SD ([5]; Table 19, dose 1.0 μM): 2.65 ± 0.49 fold
- Fold increase vs DM ± SD ([5]; Table 20, dose 0.25 μM): 1.24 ± 0.11 fold
- Fold increase vs DM ± SD ([5]; Table 20, dose 0.5 μM): 2.43 ± 0.49 fold
- Fold increase vs DM ± SD ([5]; Table 20, dose 1.0 μM): 3.32 ± 0.55 fold
- Fold increase vs DM ± SD ([5]; Table 21, dose 0.25 μM): 1.23 ± 0.16 fold
- Fold increase vs DM ± SD ([5]; Table 21, dose 0.5 μM): 2.34 ± 0.45 fold
- Fold increase vs DM ± SD ([5]; Table 21, dose 1.0 μM): 3.34 ± 0.45 fold

Compound: KHHLGLEEPKKLR [compound 1]
- Fold increase vs SEQ ID NO: 1 ± SE [6]: 1 fold
